# Assay results reported in article PMC4336329 (PLoS ONE, 2015).
# Hit rate of the full screen: of about 310,000 compounds, about 2,200 (0.71%) showed an effect of 50% or more. The effect is printed as a negative number. The list shows a part of the results.
# Biological target: human ether-à-go-go-related gene (hERG) potassium channel (human, UniProt Q12809)
# Test: primary screen, population patch clamp on CHO cells stably expressing hERG
# Chain of human ether-à-go-go-related gene (hERG) potassium channel (Q12809 whole entry, looked up): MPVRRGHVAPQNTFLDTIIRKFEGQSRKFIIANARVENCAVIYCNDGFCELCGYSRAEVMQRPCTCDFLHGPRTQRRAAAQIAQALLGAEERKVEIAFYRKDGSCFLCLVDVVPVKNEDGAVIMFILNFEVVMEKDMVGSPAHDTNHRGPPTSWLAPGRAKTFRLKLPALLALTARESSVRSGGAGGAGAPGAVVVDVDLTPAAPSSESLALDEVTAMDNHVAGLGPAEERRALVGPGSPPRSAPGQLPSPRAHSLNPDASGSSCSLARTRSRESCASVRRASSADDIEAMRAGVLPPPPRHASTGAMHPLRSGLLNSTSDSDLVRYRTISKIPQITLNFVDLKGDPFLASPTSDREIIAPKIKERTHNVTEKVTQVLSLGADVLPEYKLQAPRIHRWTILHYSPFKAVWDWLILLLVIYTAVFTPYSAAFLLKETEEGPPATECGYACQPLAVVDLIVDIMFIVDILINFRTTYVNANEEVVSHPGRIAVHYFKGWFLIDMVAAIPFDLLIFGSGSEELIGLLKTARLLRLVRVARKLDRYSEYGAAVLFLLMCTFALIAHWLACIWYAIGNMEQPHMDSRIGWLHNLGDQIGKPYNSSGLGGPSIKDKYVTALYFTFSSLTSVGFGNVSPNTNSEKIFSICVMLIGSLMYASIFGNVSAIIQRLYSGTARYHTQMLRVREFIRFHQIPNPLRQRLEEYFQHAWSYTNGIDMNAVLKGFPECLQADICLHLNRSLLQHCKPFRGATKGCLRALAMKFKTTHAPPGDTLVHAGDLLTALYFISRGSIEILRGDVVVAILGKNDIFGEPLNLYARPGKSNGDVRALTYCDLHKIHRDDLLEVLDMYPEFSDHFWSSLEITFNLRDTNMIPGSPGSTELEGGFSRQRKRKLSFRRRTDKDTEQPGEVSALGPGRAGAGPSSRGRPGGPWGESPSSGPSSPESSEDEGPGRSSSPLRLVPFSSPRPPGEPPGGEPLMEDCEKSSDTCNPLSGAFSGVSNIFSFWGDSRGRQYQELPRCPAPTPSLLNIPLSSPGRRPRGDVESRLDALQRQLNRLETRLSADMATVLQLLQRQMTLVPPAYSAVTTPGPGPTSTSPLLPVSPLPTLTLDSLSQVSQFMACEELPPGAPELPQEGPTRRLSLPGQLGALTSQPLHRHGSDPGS
row,Structure (SMILES),"hERG current change (%, negative = inhibition) at 1uM [%]"
1,CC(=O)N1CCN(c2nc(C)nc3sc4c(c23)CCC(C)C4)CC1 (stereo not shown),1.17
2,O=C1CSC(c2ccccn2)N1c1ccccc1 (stereo not shown),0.503
3,Cc1cc(C)nc(NC(=O)CCCC(=O)O)c1,12
4,COCCCN(CC(=O)O)S(=O)(=O)c1ccccc1,5.13
5,CCOC(=O)N1N=C(c2ccccc2)CC1(O)C(F)(F)F (stereo not shown),4.26
6,CC(C)CNC(=S)NC(=O)c1ccc(Cl)cc1Cl,3.27
7,CCS(=O)(=O)N1CCN(C(=O)c2cc(OC)cc(OC)c2)CC1,12.7
8,COc1ccc(NC(=O)c2cccc(Oc3ccc([N+](=O)[O-])cc3Cl)c2)cc1,14.1
9,CS(=O)(=O)N(CC(=O)NCCSCc1ccccc1)c1ccc2c(c1)OCO2,8.85
10,COc1ccc(/C=N/NC(=O)c2cccc(NC(C)=O)c2)c(OC)c1,8.79
11,CC(C)c1ccc(S(=O)(=O)N2CCN(C(=O)c3cccc(F)c3)CC2)cc1,12.8
12,O=C(CCl)Nc1cc(S(=O)(=O)N2CCOCC2)ccc1N1CCOCC1,16.4
13,CS(=O)(=O)N(CC(=O)Nc1ccc2c(c1)OCO2)c1ccc(Cl)cc1,15
14,O=C(c1ccccc1)N1N=C(c2ccc(F)cc2)CC1(O)C(F)(F)F (stereo not shown),15.3
15,CCOC(=O)N1CCN(C(=O)c2cn(C)c3ccc(S(=O)(=O)N4CCCC4)cc3c2=O)CC1,7.08
16,COc1cc(CCCN2C(=O)C(=O)NC[C@@H]2Cc2ccc(O)cc2)cc(OC)c1OC,17.3
17,CCCC(=O)Nc1ccc(OCC(O)CNC(C)C)c(C(C)=O)c1.Cl (stereo not shown),9.12
18,COc1ccc(NC(=O)NC2CC3CCCC(C2)N3Cc2ccccc2)cc1 (stereo not shown),-17.4
19,Nc1cnn(C2OC(CO)C(O)C2O)c(=O)n1 (stereo not shown),6.98
20,CC(C)C[C@@]12C(=O)N(c3cccc(Br)c3)C(=O)N1[C@H](c1ccc(Cl)cc1)[C@@H]1C(=O)N(C3CCCCC3)C(=O)[C@@H]12,-2.61
21,O=C(Nc1ccc(F)c(Cl)c1)C1CC(=O)N(Cc2ccco2)C1 (stereo not shown),1.42
22,Cc1ccc2nc(N(CCCN(C)C)C(=O)c3cc(-c4cccs4)nc4ccccc34)sc2c1.Cl,4.73

row,Structure (SMILES),"hERG current change (%, negative = inhibition) at 1uM [%]"
1,CCOC(=O)c1[nH]c(C)c(C(=O)NCCc2ccc(OC)cc2)c1C,22.1
2,COc1cc(NC(=O)C2=C(N3CCOCC3)/C(=C\c3ccc(Cl)cc3Cl)CC2)cc(OC)c1OC,7.87
3,CCNC(=O)CSc1nc2sccc2c(=O)n1-c1ccccc1,15.5
4,COc1ccc(C(=O)N/C(=C/c2cccnc2)C(=O)NCc2ccco2)cc1OC,14.4
5,Cc1csc(NC(=O)CSc2nncs2)n1,8.29
6,O=C(CCl)Nc1cc(-c2ccccc2)nn1-c1ccccc1,3.51
7,O=C(NCc1ccccc1)c1ccc[nH+]c1.[Cl-],12.3
8,COc1ccc(N2C(=O)C(Cl)=C(Nc3c(C)n(C)n(-c4ccccc4)c3=O)C2=O)cc1,7.79
9,Cc1ccc(-n2nc(C(=O)c3ccccc3)n3c(=O)c(Cc4ccccc4)nnc23)cc1,6.38
10,Nc1nonc1-n1nnc(C(=O)N/N=C/c2ccccc2)c1CSc1ccc(Cl)cc1,-4.8
11,CC(C)N(C(=O)Nc1ccc2nsnc2c1)C(C)C,6.78
12,N#Cc1ccc(Oc2nc(Nc3ccc(F)cc3)nc(N3CCCC3)n2)cc1,2.01
13,Cc1csc(N/N=C/c2c(F)cccc2Cl)n1,7.98
14,CC(=O)Nc1nc(C)c(Oc2ccc(C)cc2)c(=O)[nH]1,12.3
15,CCN(CC)S(=O)(=O)c1ccc(NC(=O)COC(=O)c2cnc(C)cn2)cc1,16.4
16,CC1(C)CCc2cc(-c3ccnc(=S)[nH]3)ccc2O1,22.5
17,Cc1ccc(OCCOC(=O)Cn2nc(C)c([N+](=O)[O-])c2C)cc1,6.95
18,COCCn1c(C)cc(C(=O)CSc2nc3nc(C)cc(C)n3n2)c1C,-1.42
19,O=C(c1ccccc1NS(=O)(=O)c1cccs1)N1CCCC1,13.8
20,C#CCN(C#N)c1nc(NCC)nc(NC(C)C)n1,6.89
21,Cc1[nH]c(C)c(S(=O)(=O)N2CCN(c3ccc(Cl)cc3)CC2)c1C(=O)N1CCCC1,-44.2
